Experimental data reported in PubChem BioAssay AID743279 (National Center for Advancing Translational Sciences (NCATS), 2014).
The campaign covered roughly 360,000 compounds. About 17,000 (4.7%) were called active. Inconclusive results, whose numbers are uncertain, are shown with a selection of clear calls. Rule as the data show it: active = activity change below about -50%; inconclusive = mostly about -30% to -49%; inactive = weaker than that.

assay: qHTS for Inhibitors of Inflammasome Signaling: IL-1-beta AlphaLISA Primary Screen; conditions: THP-1 LPS/ATP IL-1B secretion, 16 h; at 57.5 µM, hits give low values
Summary of the method: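 THP-1 cells pretreated 1 hr with compounds (up to 57.5 uM final), then stimulated with LPS (250 ng/mL final) plus ATP (1.25 mM final); secreted IL-1B measured by AlphaLISA after 16 hr, decreased signal indicating inhibition.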
% is scaled to controls: 0 for no effect and ±100 for the full control effect.

Activity change, active:
C=CC[n+]1c(-c2ccc(C)cc2)csc1NNC(=O)Nc1ccccc1 -79.2%
CCN1CCC(NCCc2ccc(F)cc2)CC1 -53.8%
COc1cccc(CCN2CCC(CNS(=O)(=O)c3cc(-c4cc(C)no4)ccc3C)CC2)c1 -61.8%
COc1cccc(/C=C2\CCCCC2=O)c1 -80.5%
COc1cc(NC(=O)c2cccs2)c(OC)cc1NC(=O)Cc1ccccc1 -53.9%
Cc1cccc(N2C(=O)C(Oc3ccc(Cl)cc3Cl)C2C=O)c1C (stereo unspecified) -89.2%
CCCn1ncc(CN2CCC(C(=O)Nc3cccc(-c4cccc(F)c4)c3)CC2)c1C -75.7%
Cc1ccc(C)c(Cn2nnc3c(=O)[nH]c(C4CCN(S(=O)(=O)c5ccc(S(=O)(=O)NC6CC6)cc5)CC4)nc32)c1 -54.5%
C=CCn1c(O)c(N=O)c2cc(C)ccc21 -51.6%
Cc1ccc(C(C)C)c(OCC(O)CNC2CCCC2)c1 (stereo unspecified) -51.2%
COc1ccc(CC2(CO)CCN(Cc3cnn(-c4ccccc4)c3)CC2)cc1 -95.1%
CN1CCN(Cc2nc3ccccc3c(=O)n2Cc2nc(-c3ccc([N+](=O)[O-])cc3)cs2)CC1 -97.3%
Fc1ccc(/C=C2\CCCC3=C2Nc2ncnn2C3c2ccc(F)cc2)cc1 (stereo unspecified) -122%

Activity change, inconclusive:
CCN(CC)S(=O)(=O)c1cccc(C(=O)Nc2ccc(S(=O)(=O)NC3=NCCCCC3)cc2)c1 -32.5%
CC(C)=CCN1CCC(n2nccc2NC(=O)c2ccccc2Cl)CC1 -34.3%
C=CCC[C@@H](CCCCC)OC(=O)/C=C/[C@@H](O)[C@H](O)C[C@@H](O)CC=C -43%
CCOc1cccc2sc(N3CCN(C(=O)c4ccc5ncsc5c4)CC3)nc12 -35.7%
CC(=O)Nc1ccc(Nc2nc(-c3ccccc3)nc3ccccc23)cc1 -33.4%
COc1ccc([C@H]2CC(=O)C=C(c3cc4ccccc4s3)C2)cc1 -38.9%
COCCn1c(SCC(=O)/C=C2\N(C)c3ccccc3C2(C)C)nnc1-c1ccncc1 -43.8%
CN(CCNC(=O)C1CCC(=O)N(Cc2ccc(Cl)cc2)C1)CCc1ccccc1 (stereo unspecified) -43.6%
O=C(NCc1ccc(Cl)cc1)c1csc(-c2cccnc2)n1 -43.7%
c1csc(-c2nn3c(C4CCCCC4)nnc3s2)c1 -36.1%
Cn1nc(NC(=O)C(F)(F)F)c2nccnc21 -35.2%
CN1CCN(CCCCOc2ccccc2-c2ccccc2)CC1 -39.6%
Cc1cc(C)c2c(N)c(C(=O)Nc3ccccc3F)sc2n1 -46.5%
COc1cc2[nH]c(=O)n(CCC(=O)N3CCN(Cc4ccc5c(c4)OCO5)CC3)c(=O)c2cc1OC -30.6%
COC(=O)C1=CN(c2ccc(OC)cc2)C=C(C(=O)OC)C1c1ccc([N+](=O)[O-])cc1 -31.3%
O=C(NCCCN1CCCC1=O)c1ccccc1OCc1ccc(Cl)cc1Cl -39.8%
O=S(=O)(c1cccc(COc2ccc(Cl)cc2Cl)c1)N1CCOCC1 -40%
O=C1OCCN1C(=O)[C@H]1[C@H](c2ccc([N+](=O)[O-])cc2)C(c2cccc(Cl)c2)=NN1c1ccccc1 -43%
Cc1ccc(-c2cc(N)nc(-c3ccccc3)c2)cc1 -46.5%
Cc1occc1C(=O)Nc1ccccc1C#N -39.3%
COC(CNC(=O)c1cnn2c(C)c(Cc3ccccc3)c(C)nc12)OC -46.2%
Cn1c(=O)c(C(=O)CCl)c(N)n(CC2CC2)c1=O -45.4%
O=C(c1ccccc1)c1sc(N2CCOCC2)nc1-c1ccccc1 -30.2%
N#Cc1ccc(OCC(=O)Nc2nc(-c3ccncc3)cs2)cc1 -34.6%
O=C(C1=C[C@H](c2csc3ccccc23)C[C@H](OCc2ccc(CO)cc2)O1)N1CCN(Cc2ccccc2)CC1 -41.6%
COCCNC(=O)/C(C#N)=C/c1c(N2CCN(c3ccc(OC)cc3)CC2)nc2c(C)cccn2c1=O -47.2%
COc1nc(N/N=C/c2cc3c(cc2Br)OCO3)nc(N2CCOCC2)n1 -31.6%
COc1ccc(Cl)cc1NC(=O)CN(C)C(=O)Cc1ccc2c(c1)CCC2 -32.6%
COc1ccc(OC)c(C2SCCN2S(=O)(=O)c2cccc(C(F)(F)F)c2)c1 (stereo unspecified) -35.2%
COc1ccc(/C=C/C(=O)CC(O)(c2ccccc2)C(F)(F)F)cc1 (stereo unspecified) -34.5%
COc1ccc2nc(NC(=O)Cc3ccc(OC)c(S(=O)(=O)N4CCOCC4)c3)sc2c1 -39.3%
O=C(CSc1nc2nn(-c3ccccc3)c(=O)c-2c2n1CCCCC2)Nc1ccc(OC(F)F)cc1 -33.8%
CCCCSc1nnc(CNC(=O)C23CC4CC(CC(C4)C2)C3)n1Cc1ccccc1 -43.4%
COc1ccc(-c2csc3nc(C)nc(N4CCN(c5ccc(C(C)=O)cc5)CC4)c23)cc1OC -36.9%
CN1CCN(c2ccc(S(=O)(=O)N3CCCCC3)cc2NC(=O)c2ccc(F)cc2F)CC1 -37.1%
Cc1ccc2cc(C)c(N3CCN(c4ccccn4)CC3)nc2c1 -32.7%
Cc1sc2ccccc2[n+]1CC(=O)c1ccccc1 -42.6%
O=C(Nc1nnc([C@H]2C[C@H](O)[C@@H](CO)O2)s1)Nc1cccc(Cl)c1Cl -45.2%
CCCCCC(=O)Nc1cccc(C2=NOC3(C2)C[C@@H](C(N)=O)N(C(=O)c2ccc(Cl)cc2)C3)c1 (stereo partly specified) -37.8%
Oc1ccccc1N1CCN(C(c2ccccc2)c2ccccc2)CC1 -31.6%
Cn1cccc1CNC(=O)Nc1ccc(Cl)cc1 -41%
Cc1cc(C)nc(N/N=C2/CCCC/C2=C\c2ccccc2)n1 -49.1%
Cc1ccc(CS(=O)(=O)c2ccc(C(=O)N3CCN(c4ccccn4)CC3)cc2[N+](=O)[O-])cc1 -30.1%
Cc1cc(C)n(CC(=O)N/N=C/c2ccc([N+](=O)[O-])s2)n1 -32.6%
COc1ccc2[nH]c3c(Cl)ncnc3c2c1 -35.5%
Cc1cccc(NC(=O)C2CCN(S(=O)(=O)c3ccc4c(c3)NC(=O)CO4)CC2)c1C -32.6%
O=S1(=O)CC/C(=N/Nc2ccc(C(F)(F)F)cn2)c2cc(F)ccc21 -44.4%
CCn1c2ccccc2c2cc(/C=N/n3c(C)nnc3C)ccc21 -31.7%
CCc1nc2ccc(C(=O)N3CCN(c4ccc([N+](=O)[O-])cc4)CC3)cc2nc1CC -30.3%
COc1ccccc1NC(=O)c1cc2c(=O)n(C)c3ccccc3c2n1C -32.9%
CCOC(=O)C1CCN(C(=O)COc2ccc3c(C)cc(=O)oc3c2)CC1 -39.8%
OC1(c2ccc(Cl)cc2)CCN(Cc2c[nH]c3ccccc23)CC1 -43.6%
CC1CCC/C(=C\Nc2ccc(O)cc2)C1=O (stereo unspecified) -31%
CCC(C)NC(=O)CSc1ncnc2sccc12 (stereo unspecified) -32.2%
COCCNc1c(-c2ccc(OC)c(OC)c2)nc2ccc(Cl)cn12 -46.8%
Cc1ccc(C)c(S(=O)(=O)c2c(N)n(/N=C/c3ccco3)c3nc4ccccc4nc23)c1 -34.9%

Activity change, inactive:
COc1ccc(-c2cc(Cl)cc3c(=O)c4ccccc4n(C)c23)cc1F -11.6%
O=C(CCN1C(=O)/C(=C/c2ccc(F)cc2)SC1=S)NNC(=O)c1ccncc1 1.61%
CC(C)(O)c1cc2ccc(C#Cc3ccsc3)cc2c(=O)o1 -22.4%
Cc1cc(CNC(=O)COC(=O)C2CC3CCCC(C2)C3=O)cc(C)c1O (stereo unspecified) 1.45%
c1cc(CNc2ccc3c(c2)OCO3)ccn1 -3.48%
CS(=O)(=O)c1nc2ccccc2n1Cc1ccccc1 12.2%
COc1ccc(SC[C@H](CC(C)C)N2CCN(CCc3ccccc3)CCC2=O)cc1 -0.83%
CCCCCOCC(O)CCC(=O)NN (stereo unspecified) 0%
CCc1ccccc1N(C(=O)c1ccco1)C(C(=O)NC1CCCC1)c1cccnc1 (stereo unspecified) -16.4%
Cc1ccnc(NC(=O)c2ccc(S(=O)(=O)N3CCCC3)cc2)c1 2.09%
COc1ccc(NC(=O)CC2CC3CCC2C3)cc1S(=O)(=O)N1CCOCC1 (stereo unspecified) 22.5%
CSc1ccc(C(=O)C2CCCN(Cc3cccc4nccnc34)C2)cc1 (stereo unspecified) -19.9%
O=C(NC1CCCC1)C1c2ccccc2OCC(=O)N1Cc1cccnc1 (stereo unspecified) -2.86%
CCCN1CCN(c2nc(-c3cccs3)nc3ccccc23)CC1 -27.6%
O=C1CCCC2=C1C(c1ccco1)Nc1ccc3ccccc3c12 (stereo unspecified) -13%
CC(=O)N/C(=C/c1ccc(OS(=O)(=O)c2ccc(C)cc2)cc1)C(=O)NCCCO 0%
Cc1nc(Cl)sc1C(=O)Nc1cccc(C(F)(F)F)c1 -4.97%
